Measured values as given in PubChem BioAssay (NCI).
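Test compounds were applied to cells in 96-well plates for 48 hours at 5 doses. GI50 = concentration required for 50% inhibition of growth.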 Some entries of the source have several records that differ or are many. They are shown here; other results are not. There may be further records. For part of these data: The values listed for one entry are repeats (runs, samples, wells, individuals or studies). Brackets tell where a record comes from. Letters hold for one entry only.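 At the TGI there is no net growth.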 For part of these data: The tests behind the records often covered other concentration ranges, not given here; some values may only mark the edge of a range. Where a SMILES comes first, the peptide text is derived from it. The star is where a group is joined. Boc = CC(C)(C)OC(=O)*

Assays:
Assay in all cases: growth of human tumour cells (NCI), 48 h
[1] = test system: HCT-116 colon
[2] = test system: NCI-H522 lung
[3] = test system: CCRF-CEM leukemia
[4] = test system: TK-10 renal
[5] = test system: T-47D breast
[6] = test system: IGROV1 ovarian
[7] = test system: K-562 leukemia
[8] = test system: XF 498 CNS
[9] = test system: KM20L2 colon
[10] = test system: SR leukemia

Structure (SMILES): COC(=O)C(C)NC(=O)C(CCSC)NC(=O)C(Cc1ccccc1)NC(=O)OC(C)(C)C (stereo not drawn) (Boc-Phe-Met-Ala-OMe; configuration not given here)
- TGI [1]: 32 µg/mL [sample A] and > 100 µM [sample B]
- TGI [2]: 29.6 µg/mL [sample A] and > 100 µM [sample B]
- TGI [3]: 14.2 µg/mL [sample A] and > 100 µM [sample B]
- TGI [4]: 19.7 µg/mL [sample A] and > 100 µM [sample B]

Structure (SMILES): CN(C)C/C=C/C(=O)Nc1cc2c(Nc3ccc(F)c(Cl)c3)ncnc2cc1O[C@H]1CCOC1
- GI50 [5]: 711 nM [sample A, mean of 2 tests] and 29.6 nM [sample B, mean of 2 tests]
- GI50 [6]: 271 nM [sample A, mean of 2 tests] and 8.81 nM [sample B, mean of 2 tests]
- TGI [4]: 151 nM [sample A, mean of 2 tests] and > 6.33 µM [sample B, mean of 2 tests]

Structure (SMILES): CC1(Br)Cc2ccccc2C1=O (configuration not stated)
- TGI [7]: 9.12 µM and > 100 µM

Structure (SMILES): C/C(=N\NC(=S)N1CCCCCC1)c1ccccn1
- TGI [8]: 32.7 nM and 1.78 µM
- TGI [9]: 18.6 nM and 1.03 µM
- TGI [3]: 394 nM and > 81 µM
- TGI [10]: 2.67 µM and > 100 µM
